Assays:
Test in all cases: flow cytometry on cells; yeast-surface display deep mutational scanning (Tite-Seq): scFv library on S. cerevisiae AWY101, biotinylated CGG (IgY) at 10-fold steps from 10^-6 to 10^-13 M plus 0 M, PE-streptavidin, four FACS bins, barcode sequencing; Δaffinity = -Δlog10(KD) against the naive scFv; mean of two independent experiments
Settings in all cases: one partner purified
clone 2.1 scFv N108LR = target: T1, clone 2.1 scFv N108LR (mouse)
T1 construct: as the VH of m4 (unmutated): VH of PDB 9ODB with the replacements of 2.1^hi reverted; IMGT numbering; scFv linker; as the Vkappa of m4 (unmutated) with N108R; source: yeast-surface display, S. cerevisiae AWY101 (pETcon vector), site-saturation library

clone 2.1 scFv Y42LN = target: T2, clone 2.1 scFv Y42LN (mouse)
Chain of clone 2.1 scFv Y42LN (heavy, as listed by the source, chain 1 of 2): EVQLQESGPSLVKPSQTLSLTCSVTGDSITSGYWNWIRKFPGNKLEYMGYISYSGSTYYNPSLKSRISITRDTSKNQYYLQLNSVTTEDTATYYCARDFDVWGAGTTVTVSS
Chain of clone 2.1 scFv Y42LN (light, as listed by the source, chain 2 of 2): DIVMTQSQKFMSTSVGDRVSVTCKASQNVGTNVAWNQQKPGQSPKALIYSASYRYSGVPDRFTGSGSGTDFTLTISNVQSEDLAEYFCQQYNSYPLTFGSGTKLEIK
T2 construct: as the VH of m4 (unmutated): VH of PDB 9ODB with the replacements of 2.1^hi reverted; IMGT numbering; scFv linker; as the Vkappa of m4 (unmutated) with Y42N; source: yeast-surface display, S. cerevisiae AWY101 (pETcon vector), site-saturation library

clone 2.1 scFv Y38HE = target: T3, clone 2.1 scFv Y38HE (mouse)
Chain of clone 2.1 scFv Y38HE (heavy, as listed by the source, chain 1 of 2): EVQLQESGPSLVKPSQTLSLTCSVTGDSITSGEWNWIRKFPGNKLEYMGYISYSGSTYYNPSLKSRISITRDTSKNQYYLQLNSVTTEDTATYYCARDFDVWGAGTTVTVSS
Chain of clone 2.1 scFv Y38HE (light, as listed by the source, chain 2 of 2): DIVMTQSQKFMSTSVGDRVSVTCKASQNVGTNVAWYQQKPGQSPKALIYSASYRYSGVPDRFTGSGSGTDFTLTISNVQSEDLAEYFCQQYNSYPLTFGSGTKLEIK
T3 construct: as the VH of m4 (unmutated) with Y38E; IMGT numbering; scFv linker; as the Vkappa of m4 (unmutated): Vkappa of PDB 9ODB with the replacements of 2.1^hi reverted; source: yeast-surface display, S. cerevisiae AWY101 (pETcon vector), site-saturation library

Chain of clone 2.1 scFv N108LR (light, as listed by the source, chain 2 of 2): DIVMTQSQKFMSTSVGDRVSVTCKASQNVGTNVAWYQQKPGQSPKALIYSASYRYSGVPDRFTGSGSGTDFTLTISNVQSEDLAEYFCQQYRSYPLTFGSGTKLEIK

B1: chicken IgY (natural protein)
chain: AVTLDESGGGLQTPGGTLSLVCEGSGFTFSSFHMQWVRQALGKGLEWVAGISGSGKYTSYGAAVKGRATISRDNGQSTVRLQLNNLKAEDTGTYYCTRSSCGGCCDWSPYTTGCGAYSTGTIDAWGHGTEVIVSSASPTSPPRLYPLSACCSDSAVPPAVGCLLSPSSAGGISWEGSGGTAVAGRVSGTPVKLSFVRLSPGEKRKSFVCSAAPGGALLKKEVQVCRVDPVPPVAPEVQVLHPSSCTPSQSESVELLCLVTGFSPASAEVEWLVDGVGGLLVASQSPAVRSGSTYSLSSRVNVSGTDWREGKSYSCRVRHPATNTVVEDHVKGC[about 250 residues not given here]
modifications: biotin (biotinylated CGG, Exalpha IgY-B, in the yeast-display assay)
Δaffinity (-Δlog10(KD) against the naive 2.1 scFv) (clone 2.1 scFv N108LR): 0.91 log10 | Δaffinity (-Δlog10(KD) against the naive 2.1 scFv) (clone 2.1 scFv Y42LN): 0.26 log10 | Δaffinity (-Δlog10(KD) against the naive 2.1 scFv) (clone 2.1 scFv Y38HE): -3 log10
